{"source": "the supplement of paper PMC8728848", "test_in_all_cases": "glycan array binding signal (z-score within array); higher = stronger binding", "conditions_in_all_cases": "glycan notation: IUPAC condensed, linker removed", "key": {"[1]": {"target": "Gal(b1-4)GlcNAc(b1-2)Man(a1-3)[Gal(b1-4)GlcNAc(b1-2)Man(a1-6)][Gal(b1-4)GlcNAc(b1-4)]Man(b1-4)GlcNAc(b1-4)[Fuc(a1-6)]GlcNAc", "in_short": "(§1)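 Glycan array binding is given as a within-array Z-score, which can be read as non-binding when negative. The arrays, 3228 of them, came from the Consortium for Functional Glycomics database and were retained only where the protein sequence was available. Z-scores were averaged across arrays of the same protein sequence at different concentrations or buffers and across linkers.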"}, "[2]": {"target": "Gal(b1-4)GlcNAc(b1-2)Man(a1-3)[Gal(b1-4)GlcNAc(b1-2)Man(a1-6)][GlcNAc(b1-4)]Man(b1-4)GlcNAc(b1-4)[Fuc(a1-6)]GlcNAc", "in_short": "as §1"}, "[3]": {"target": "Gal(b1-4)GlcNAc(b1-2)Man(a1-3)[GlcNAc(b1-2)Man(a1-6)]Man(b1-4)GlcNAc(b1-4)GlcNAc", "in_short": "as §1"}, "[4]": {"target": "Gal(b1-4)GlcNAc(b1-2)Man(a1-3)[GlcNAc(b1-4)][Gal(b1-4)GlcNAc(b1-2)Man(a1-6)]Man(b1-4)GlcNAc(b1-4)GlcNAc", "in_short": "as §1"}, "[5]": {"target": "Gal(b1-4)GlcNAc(b1-2)Man(a1-3)[Man(a1-6)]Man(b1-4)GlcNAc(b1-4)GlcNAc", "in_short": "as §1"}, "[6]": {"target": "Gal(b1-4)GlcNAc(b1-2)Man(a1-6)Man(b1-4)GlcNAc(b1-4)GlcNAc", "in_short": "as §1"}, "[7]": {"target": "Gal(b1-4)GlcNAc(b1-2)Man(a1-6)[GlcNAc(b1-2)Man(a1-3)]Man(b1-4)GlcNAc(b1-4)GlcNAc", "in_short": "as §1"}, "[8]": {"target": "Gal(b1-4)GlcNAc(b1-2)Man(a1-6)[Man(a1-3)]Man(b1-4)GlcNAc(b1-4)GlcNAc", "in_short": "as §1"}, "[9]": {"target": "Gal(b1-4)GlcNAc(b1-2)[Gal(b1-4)GlcNAc(b1-4)]Man(a1-3)[Gal(b1-4)GlcNAc(b1-2)Man(a1-6)]Man(b1-4)GlcNAc(b1-4)GlcNAc", "in_short": "as §1"}, "[10]": {"target": "Gal(b1-4)GlcNAc(b1-2)[Gal(b1-4)GlcNAc(b1-4)]Man(a1-3)[Gal(b1-4)GlcNAc(b1-2)[Gal(b1-4)GlcNAc(b1-6)]Man(a1-6)]Man(b1-4)GlcNAc(b1-4)GlcNAc", "in_short": "as §1"}, "[11]": {"target": "Gal(b1-4)GlcNAc(b1-2)[Gal(b1-4)GlcNAc(b1-4)]Man(a1-3)[GlcNAc(b1-4)][Gal(b1-4)GlcNAc(b1-2)Man(a1-6)]Man(b1-4)GlcNAc(b1-4)GlcNAc", "in_short": "as §1"}, "[12]": {"target": "Gal(b1-4)GlcNAc(b1-2)[Gal(b1-4)GlcNAc(b1-4)]Man(a1-3)[GlcNAc(b1-4)][Gal(b1-4)GlcNAc(b1-2)[Gal(b1-4)GlcNAc(b1-6)]Man(a1-6)]Man(b1-4)GlcNAc(b1-4)GlcNAc", "in_short": "as §1"}, "[13]": {"target": "Gal(b1-4)GlcNAc(b1-2)[Gal(b1-4)GlcNAc(b1-6)]Man(a1-6)[Gal(b1-4)GlcNAc(b1-2)Man(a1-3)]Man(b1-4)GlcNAc(b1-4)GlcNAc", "in_short": "as §1"}, "[14]": {"target": "Gal(b1-4)GlcNAc(b1-2)[Gal(b1-4)GlcNAc(b1-6)]Man(a1-6)[Gal(b1-4)GlcNAc(b1-2)Man(a1-3)]Man(b1-4)GlcNAc(b1-4)[Fuc(a1-6)]GlcNAc", "in_short": "as §1"}, "[15]": {"target": "Gal(b1-4)GlcNAc(b1-2)[Gal(b1-4)GlcNAc(b1-6)]Man(a1-6)[GlcNAc(b1-4)][Gal(b1-4)GlcNAc(b1-2)Man(a1-3)]Man(b1-4)GlcNAc(b1-4)GlcNAc", "in_short": "as §1"}, "[16]": {"target": "Gal(b1-4)GlcNAc(b1-2)[Gal(b1-4)GlcNAc(b1-6)]Man(a1-6)[GlcNAc(b1-4)][Gal(b1-4)GlcNAc(b1-2)[Gal(b1-4)GlcNAc(b1-4)]Man(a1-3)]Man(b1-4)GlcNAc(b1-4)[Fuc(a1-6)]GlcNAc", "in_short": "as §1"}, "[17]": {"target": "Gal(b1-4)GlcNAc(b1-3)Gal(b1-3)GalNAc", "in_short": "as §1"}, "[18]": {"target": "Gal(b1-4)GlcNAc(b1-3)Gal(b1-3)GlcNAc", "in_short": "as §1"}, "[19]": {"target": "Gal(b1-4)GlcNAc(b1-3)Gal(b1-4)Glc", "in_short": "as §1"}}, "note": "The list shows a part of the results."}
{"binder": "CaSRK1 (Capsicum annuum) (protein) MALCKIFPFAFILLSCSCYLISGQRFDYPTANLSTTWINSVSAPHSIDYTDGSRIRAILLRGTFGPRYACGFYCNGNCESYLFAIFIVQTNSASQITSPAIGFPQVVWSANRNNPVKINSTLQLTAEGDLVLRDADGTLAWSTNTAGKSVAGLSLTDEGNLALFDSKNATVWQSFDHPTDALVPGQKLVPGMKLTASVSRTNWTAGGLFALSAIDNGLVAFVESNPPQKYFEASVGGSNTSGGSNYVKYLNGSLTLFTHSADTTELILISITPASSAQYMKLESNGHLKVYEWTSRGWREVDDLLTGFRGECNYPTVCGRYGICTMGQCSCPTSSSSRTYFRPIDVRRPSLGCSEVTKLTCQNTKKHSPLEVEDVDYFAFKAGISDTDLNTCKRACLEKCSCKAAFFRSGLNSSRTRGDCYLPTEIFSIMNNEKDRTRYDSVAFIKVQV", "values": [{"measurement": "glycan array binding signal (z-score)", "setting": "[1]", "value": -0.209}, {"measurement": "glycan array binding signal (z-score)", "setting": "[2]", "value": -0.478}, {"measurement": "glycan array binding signal (z-score)", "setting": "[3]", "value": 0.031}, {"measurement": "glycan array binding signal (z-score)", "setting": "[4]", "value": -0.545}, {"measurement": "glycan array binding signal (z-score)", "setting": "[5]", "value": -0.254}, {"measurement": "glycan array binding signal (z-score)", "setting": "[6]", "value": 0.09}, {"measurement": "glycan array binding signal (z-score)", "setting": "[7]", "value": -0.457}, {"measurement": "glycan array binding signal (z-score)", "setting": "[8]", "value": -0.537}, {"measurement": "glycan array binding signal (z-score)", "setting": "[9]", "value": -0.579}, {"measurement": "glycan array binding signal (z-score)", "setting": "[10]", "value": -0.439}, {"measurement": "glycan array binding signal (z-score)", "setting": "[11]", "value": -0.382}, {"measurement": "glycan array binding signal (z-score)", "setting": "[12]", "value": -0.384}, {"measurement": "glycan array binding signal (z-score)", "setting": "[13]", "value": -0.454}, {"measurement": "glycan array binding signal (z-score)", "setting": "[14]", "value": -0.463}, {"measurement": "glycan array binding signal (z-score)", "setting": "[15]", "value": -0.552}, {"measurement": "glycan array binding signal (z-score)", "setting": "[16]", "value": -0.469}, {"measurement": "glycan array binding signal (z-score)", "setting": "[17]", "value": -0.446}, {"measurement": "glycan array binding signal (z-score)", "setting": "[18]", "value": -0.464}, {"measurement": "glycan array binding signal (z-score)", "setting": "[19]", "value": -0.158}]}
